# This is one part of the list.
# How the values were obtained:
# Assay in all cases: glycan array binding signal (z-score within array); higher = stronger binding
# Settings in all cases: glycan notation: IUPAC condensed, linker removed
# [1] = target: GlcNAc(b1-3)Gal(b1-4)GlcNAc(b1-3)Gal(b1-4)GlcNAc(b1-3)Gal(b1-4)GlcNAc(b1-3)Gal(b1-4)GlcNAc(b1-2)[GlcNAc(b1-3)Gal(b1-4)GlcNAc(b1-3)Gal(b1-4)GlcNAc(b1-3)Gal(b1-4)GlcNAc(b1-3)Gal(b1-4)GlcNAc(b1-6)]Man(a1-6)[GlcNAc(b1-3)Gal(b1-4)GlcNAc(b1-3)Gal(b1-4)GlcNAc(b1-3)Gal(b1-4)GlcNAc(b1-3)Gal(b1-4)GlcNAc(b1-2)Man(a1-3)]Man(b1-4)GlcNAc(b1-4)[Fuc(a1-6)]GlcNAc
# In short: (§1)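 Glycan array binding is given as a within-array Z-score, which can be read as non-binding when negative. The arrays, 3228 of them, came from the Consortium for Functional Glycomics database and were retained only where the protein sequence was available. Z-scores were averaged across arrays of the same protein sequence at different concentrations or buffers and across linkers.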
# [2] = target: GlcNAc(b1-3)Gal(b1-4)GlcNAc(b1-3)Gal(b1-4)GlcNAc(b1-3)GalNAc
# In short: as §1
# [3] = target: GlcNAc(b1-3)Gal(b1-4)GlcNAc(b1-3)GalNAc
# In short: as §1
# [4] = target: GlcNAc(b1-3)Gal(b1-4)GlcNAc(b1-3)[GlcNAc(b1-3)Gal(b1-4)GlcNAc(b1-3)]GalNAc
# In short: as §1
# [5] = target: GlcNAc(b1-3)Gal(b1-4)GlcNAc(b1-6)[Gal(b1-3)]GalNAc
# In short: as §1
# [6] = target: GlcNAc(b1-3)Gal(b1-4)GlcNAc(b1-6)[GlcNAc(b1-3)Gal(b1-3)]GalNAc
# In short: as §1
# [7] = target: GlcNAc(b1-3)Gal(b1-4)GlcNAc(b1-6)[GlcNAc(b1-3)]Gal(b1-4)GlcNAc
# In short: as §1
# [8] = target: GlcNAc(b1-3)GalNAc
# In short: as §1
# [9] = target: GlcNAc(b1-3)Man
# In short: as §1
# [10] = target: GlcNAc(b1-3)[GlcNAc(b1-4)][GlcNAc(b1-6)]GlcNAc
# In short: as §1
# [11] = target: GlcNAc(b1-3)[GlcNAc(b1-6)]Gal(b1-4)GlcNAc
# In short: as §1
# [12] = target: GlcNAc(b1-3)[GlcNAc(b1-6)]GalNAc
# In short: as §1
# [13] = target: GlcNAc(b1-4)Gal(b1-4)GlcNAc
# In short: as §1
# [14] = target: GlcNAc(b1-4)GlcNAc
# In short: as §1
# [15] = target: GlcNAc(b1-4)GlcNAc(b1-4)GlcNAc
# In short: as §1
# [16] = target: GlcNAc(b1-4)GlcNAc(b1-4)GlcNAc(b1-4)GlcNAc(b1-4)GlcNAc
# In short: as §1
# [17] = target: GlcNAc(b1-4)GlcNAc(b1-4)GlcNAc(b1-4)GlcNAc(b1-4)GlcNAc(b1-4)GlcNAc
# In short: as §1
# [18] = target: GlcNAc(b1-4)[GlcNAc(b1-6)]GalNAc
# In short: as §1
# [19] = target: GlcNAc(b1-6)Gal(b1-4)GlcNAc
# In short: as §1
# [20] = target: GlcNAc(b1-6)GalNAc
# In short: as §1
# [21] = target: GlcNAc6S(b1-3)Gal(b1-4)GlcNAc
# In short: as §1
# [22] = target: Kdn(a2-3)Gal(b1-3)GalNAc
# In short: as §1
# [23] = target: Kdn(a2-3)Gal(b1-3)GlcNAc
# In short: as §1
# [24] = target: Kdn(a2-3)Gal(b1-4)Glc
# In short: as §1
# [25] = target: Kdn(a2-3)Gal(b1-4)GlcNAc
# In short: as §1
# [26] = target: Kdn(a2-3)Gal(b1-4)[Fuc(a1-3)]GlcNAc
# In short: as §1
# [27] = target: Kdn(a2-6)Gal(b1-4)GlcNAc
# In short: as §1
# [28] = target: Man(a1-2)Man(a1-2)Man(a1-3)Man
# In short: as §1
# [29] = target: Man(a1-2)Man(a1-2)Man(a1-6)[Man(a1-3)]Man
# In short: as §1
# [30] = target: Man(a1-2)Man(a1-3)Man
# In short: as §1
# [31] = target: Man(a1-2)Man(a1-3)[Man(a1-2)Man(a1-6)]Man
# In short: as §1
# [32] = target: Man(a1-2)Man(a1-3)[Man(a1-2)Man(a1-6)]Man(a1-6)[Man(a1-2)Man(a1-2)Man(a1-3)]Man
# In short: as §1
# [33] = target: Man(a1-2)Man(a1-3)[Man(a1-2)Man(a1-6)]Man(a1-6)[Man(a1-2)Man(a1-2)Man(a1-3)]Man(b1-4)GlcNAc(b1-4)GlcNAc
# In short: as §1
# [34] = target: Man(a1-2)Man(a1-3)[Man(a1-6)]Man(a1-6)[Man(a1-2)Man(a1-3)]Man(b1-4)GlcNAc(b1-4)GlcNAc
# In short: as §1
# [35] = target: Man(a1-2)Man(a1-6)[Man(a1-3)]Man(a1-6)[Man(a1-2)Man(a1-2)Man(a1-3)]Man
# In short: as §1
# [36] = target: Man(a1-2)Man(a1-6)[Man(a1-3)]Man(a1-6)[Man(a1-2)Man(a1-2)Man(a1-3)]Man(b1-4)GlcNAc(b1-4)GlcNAc
# In short: as §1
# [37] = target: Man(a1-3)[Man(a1-6)]Man
# In short: as §1
# [38] = target: Man(a1-3)[Man(a1-6)]Man(a1-6)[Man(a1-2)Man(a1-3)]Man(b1-4)GlcNAc(b1-4)GlcNAc
# In short: as §1
# [39] = target: Man(a1-3)[Man(a1-6)]Man(a1-6)[Man(a1-3)]Man
# In short: as §1
# [40] = target: Man(a1-3)[Man(a1-6)]Man(a1-6)[Man(a1-3)]Man(b1-4)GlcNAc(b1-4)GlcNAc
# In short: as §1
# [41] = target: Man(a1-3)[Man(a1-6)]Man(b1-4)GlcNAc(b1-4)GlcNAc
# In short: as §1
# [42] = target: Man(a1-3)[Man(a1-6)]Man(b1-4)GlcNAc(b1-4)[Fuc(a1-6)]GlcNAc
# In short: as §1
# [43] = target: Man(a1-6)Man
# In short: as §1
# [44] = target: Man(b1-4)GlcNAc
# In short: as §1
# [45] = target: MurNAc(b1-4)GlcNAc
# In short: as §1
binder,measurement,setting,value
PX9961A-pdi-456-24-456 (Parabacteroides distasonis) (protein) KTSSTQLPTIDAISSVADLTNAVNGVYEQQATEVGSYGAEFTLLADLRSGDFQSISTVNHAGPMYRYQTGKNDEMVYSFYKLFYNSLARLNNVLAAAENLEGADVDILKGELYAMRALYHFDLARVFAKLPSTTDMNDLGIVLSTEVYPTDYIGTRATLQQTYDQILKDIETALPLLSKDKQTGHINYWGALAIRARAYLYLEKNKEALADCKEIIASSPYKLYTRDEYIGAWDKEGTNEAIFEILVTPNYNAQRNSIGYFTHASGYGECAATESFLEELAKHPGDIRTELFAKETDNGYDGTYPQKYKGRDGQIYVNNPKVVRLSEVYLIAAEAALKAGDTSAAAGYMNTLRKNRIENYTDVASITLDDILLERRLELFTEGHTAWDAWRNGKSVNNKFVGEVKPGDYRTIMAIPIGEITVSRGQLIQNPGY,glycan array binding signal (z-score),[1],0.488
same,glycan array binding signal (z-score),[2],0.025
same,glycan array binding signal (z-score),[3],0.389
same,glycan array binding signal (z-score),[4],-0.009
same,glycan array binding signal (z-score),[5],-0.362
same,glycan array binding signal (z-score),[6],-0.509
same,glycan array binding signal (z-score),[7],-0.395
same,glycan array binding signal (z-score),[8],-0.11
same,glycan array binding signal (z-score),[9],-0.376
same,glycan array binding signal (z-score),[10],-0.105
same,glycan array binding signal (z-score),[11],0.067
same,glycan array binding signal (z-score),[12],-0.09
same,glycan array binding signal (z-score),[13],-0.036
same,glycan array binding signal (z-score),[14],-0.056
same,glycan array binding signal (z-score),[15],-0.431
same,glycan array binding signal (z-score),[16],-0.251
same,glycan array binding signal (z-score),[17],-0.069
same,glycan array binding signal (z-score),[18],-0.316
same,glycan array binding signal (z-score),[19],-0.288
same,glycan array binding signal (z-score),[20],-0.224
same,glycan array binding signal (z-score),[21],0.048
same,glycan array binding signal (z-score),[22],0.217
same,glycan array binding signal (z-score),[23],-0.326
same,glycan array binding signal (z-score),[24],-0.271
same,glycan array binding signal (z-score),[25],0.468
same,glycan array binding signal (z-score),[26],-0.296
same,glycan array binding signal (z-score),[27],-0.188
same,glycan array binding signal (z-score),[28],-0.458
same,glycan array binding signal (z-score),[29],0.201
same,glycan array binding signal (z-score),[30],-0.473
same,glycan array binding signal (z-score),[31],0.015
same,glycan array binding signal (z-score),[32],-0.616
same,glycan array binding signal (z-score),[33],-0.159
same,glycan array binding signal (z-score),[34],0.028
same,glycan array binding signal (z-score),[35],-0.433
same,glycan array binding signal (z-score),[36],-0.237
same,glycan array binding signal (z-score),[37],-0.486
same,glycan array binding signal (z-score),[38],-0.3
same,glycan array binding signal (z-score),[39],-0.024
same,glycan array binding signal (z-score),[40],-0.014
same,glycan array binding signal (z-score),[41],-0.44
same,glycan array binding signal (z-score),[42],0.227
same,glycan array binding signal (z-score),[43],0.042
same,glycan array binding signal (z-score),[44],-0.455
same,glycan array binding signal (z-score),[45],-0.117
